Test in all cases: co-IP; Flag-tagged protein expressed in HEK293; lysis in 1% NP40, 25 mM Tris-HCl pH 7.4, 150 mM NaCl, 10% glycerol; anti-FLAG M2 affinity gel, three washes with 0.2% NP40 buffer; partners detected by Western blot
For orientation: Immunoblotting shows a protein as a band on a membrane.

Assay [1] deals with T1, Flag-RalA Q72L (human) (UniProt P11233).
T1 sequence: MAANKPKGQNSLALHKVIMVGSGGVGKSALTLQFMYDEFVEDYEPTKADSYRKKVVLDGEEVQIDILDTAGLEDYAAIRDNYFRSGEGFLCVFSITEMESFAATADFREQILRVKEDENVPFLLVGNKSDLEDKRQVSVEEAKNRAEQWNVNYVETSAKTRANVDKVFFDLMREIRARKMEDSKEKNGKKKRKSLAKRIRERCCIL

Assay [2] deals with T2, Flag-RalA S28N (human) (UniProt P11233).
T2 sequence: T1 sequence with S28N, L72Q

Assay [3] addresses T3, Flag-RalB Q72L (human) (UniProt P11234).
T3 sequence: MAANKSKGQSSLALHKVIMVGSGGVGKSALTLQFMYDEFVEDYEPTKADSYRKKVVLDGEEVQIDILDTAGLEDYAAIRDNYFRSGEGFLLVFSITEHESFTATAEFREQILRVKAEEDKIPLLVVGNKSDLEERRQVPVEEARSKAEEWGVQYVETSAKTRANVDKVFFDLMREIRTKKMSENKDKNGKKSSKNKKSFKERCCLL

Assay [4] addresses T4, Flag-RalB S28N (human) (UniProt P11234).
T4 sequence: T3 sequence with S28N, L72Q

In assay [5] the target is T5, Flag-tagged W2 domain of BZW2 alone (human) (UniProt Q9Y6E2).
T5 sequence: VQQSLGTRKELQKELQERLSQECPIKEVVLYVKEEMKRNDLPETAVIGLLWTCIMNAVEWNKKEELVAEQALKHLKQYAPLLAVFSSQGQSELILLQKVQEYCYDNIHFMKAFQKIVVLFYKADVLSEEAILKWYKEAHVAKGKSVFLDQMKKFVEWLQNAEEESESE

Assay [6] deals with T6, Flag-tagged basic leucine zipper and W2 domain-containing protein 2 (BZW2) (human) (UniProt Q9Y6E2).
T6 sequence: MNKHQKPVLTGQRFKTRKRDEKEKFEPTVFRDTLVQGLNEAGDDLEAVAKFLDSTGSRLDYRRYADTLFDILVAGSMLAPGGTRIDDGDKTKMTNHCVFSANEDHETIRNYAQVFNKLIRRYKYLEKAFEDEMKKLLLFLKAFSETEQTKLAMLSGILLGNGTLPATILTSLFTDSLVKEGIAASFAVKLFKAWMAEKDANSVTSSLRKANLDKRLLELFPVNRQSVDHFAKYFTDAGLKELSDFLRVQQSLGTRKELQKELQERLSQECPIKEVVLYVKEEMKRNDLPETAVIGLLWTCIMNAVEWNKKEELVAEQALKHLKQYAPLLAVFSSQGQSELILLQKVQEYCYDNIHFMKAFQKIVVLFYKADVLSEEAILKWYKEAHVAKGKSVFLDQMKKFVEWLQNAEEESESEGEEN

Numbering of substitutions follows the chain as printed. Results are given in words; binding and its absence hold for the method and conditions named. In cells and extracts the contact can be indirect. Some results given as binding are weak or reduced against the parent protein; the word gives no strength. Sequences can lack the tags named with a protein.

B1: BZW2 as detected in the immunoprecipitates of the Flag-tagged Ral mutants (protein, UniProt Q9Y6E2 1-419)
chain: T6 sequence
Consider B1, for which the binding entry in assay [1] was “binds”; in assay [2], “binds”; in assay [3], “no binding”; in assay [4], “no binding”.

B2: BCAP31 (protein, UniProt P51572 1-246)
chain: MSLQWTAVATFLYAEVFVVLLLCIPFISPKRWQKIFKSRLVELLVSYGNTFFVVLIVILVLLVIDAVREIRKYDDVTEKVNLQNNPGAMEHFHMKLFRAQRNLYIAGFSLLLSFLLRRLVTLISQQATLLASNEAFKKQAESASEAAKKYMEENDQLKKGAAVDGGKLDVGNAEVKLEEENRSLKADLQKLKDELASTKQKLEKAENQVLAMRKQSEGLTKEYDRLLEEHAKLQAAVDGPMDKKEE
As to B2, the binding result in assay [5] and in assay [6] was “binds” each time.
